Assay results: the supplement of paper PMC10369915
This is one part of the list. Rule as the data show it: active = 3.2 or more and inactive = the rest. Only a few entries rise above the background.

B1: HNRNPA2B1_Y300 (peptide)
chain: YGSGNYNDFGN
B2: HNRNPA2B1_Y300_D302V (peptide)
chain: YGSGNYNVFGN
B3: HNRNPA2B1_Y300_D302V_YF (peptide)
chain: FGSGNYNVFGN
B4: HNRNPA2B1_Y306 (peptide)
chain: NDFGNYNQQPS
B5: HNRNPA2B1_Y306_D302V (peptide)
chain: NVFGNYNQQPS
B6: HNRNPF_Y82_K87R (peptide)
chain: SMGHRYIEVFR
B7: HNRNPH2_Y210_P209L (peptide)
chain: QRPGLYDRPGA
B8: HNRNPH3_Y161 (peptide)
chain: YNNYGYGNDGF
B9: HOXB7_Y6 (peptide)
chain: MSSLYYANTLF
B10: HOXB7_Y6_T9A_YF (peptide)
chain: MSSLFYANALF
B11: HOXB7_Y6_YF (peptide)
chain: MSSLFYANTLF
B12: HP_Y272 (peptide)
chain: LPSKDYAEVGR
B13: HP_Y280_G276R (peptide)
chain: VRRVGYVSGWG
B14: HPRT1_Y198 (peptide)
chain: LDYNEYFRDLN
B15: HPRT1_Y198_D194E (peptide)
chain: LEYNEYFRDLN
B16: HPRT1_Y198_D194E_YF (peptide)
chain: LEFNEYFRDLN
B17: HPRT1_Y198_D201G_YF (peptide)
chain: LDFNEYFRGLN
B18: HPRT1_Y198_F199V_YF (peptide)
chain: LDFNEYVRDLN
B19: HPRT1_Y198_Y195C (peptide)
chain: LDCNEYFRDLN
B20: HPRT1_Y81_L78V (peptide)
chain: ADVLDYIKALN
B21: HRAS_Y64 (peptide)
chain: AGQEEYSAMRD
B22: HRAS_Y64_E63K (peptide)
chain: AGQEKYSAMRD
B23: HRC_Y99 (peptide)
chain: DVSKEYGHLLP
B24: HRNR_Y517 (peptide)
chain: GSSSSYGQHGS
B25: HS3ST5_Y244 (peptide)
chain: ERWLKYFPIEQ
B26: HS6ST3_Y323 (peptide)
chain: SLVGCYNLTFM
B27: HS6ST3_Y323_V320M (peptide)
chain: SLMGCYNLTFM
B28: HSP90AB1_Y512_M513V (peptide)
chain: GFEVVYVTEPI
B29: HSPA1A_Y107 (peptide)
chain: KVQVSYKGETK
B30: HSPA1A_Y107_E110D (peptide)
chain: KVQVSYKGDTK
B31: HSPA9_Y128 (peptide)
chain: LIGRRYDDPEV
B32: HSPA9_Y128_R126W (peptide)
chain: LIGWRYDDPEV
B33: HSPA9_Y181_H184Y (peptide)
chain: ETAENYLGYTA
B34: HSPA9_Y181_H184Y_YF (peptide)
chain: ETAENYLGFTA
B35: HSPA9_Y196_S200L (peptide)
chain: ITVPAYFNDLQ
B36: HSPA9_Y230 (peptide)
chain: AAALAYGLDKS
B37: HSPA9_Y230_A225G (peptide)
chain: GAALAYGLDKS

How the values were obtained:
Test in all cases: enrichment score (SH2-bound / input frequency) (ratio); bacterial display of known human phosphotyrosine sites (pTyr-Var adds point mutants) read by sequencing; higher = stronger binding; tyrosines were phosphorylated by kinases first
Details in all cases: peptide library: pTyr-Var
[1] = molecular target: SHP2 C-SH2 domain E139D
[2] = molecular target: SHP2 C-SH2 domain wild-type
[3] = molecular target: SHP2 N-SH2 domain L43F
[4] = molecular target: SHP2 N-SH2 domain T42A
[5] = molecular target: SHP2 N-SH2 domain T52S
[6] = molecular target: SHP2 N-SH2 domain wild-type
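Also: displayed peptides selected on beads carrying the immobilized SH2 domain, with library peptides lacking any tyrosine serving as negative controls.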

Binder	enrichment score [1]	enrichment score [2]	enrichment score [3]	enrichment score [4]	enrichment score [5]	enrichment score [6]
B1	inactive: 0.958	inactive: 0.722	inactive: 0.686	inactive: 0.554	inactive: 0.655	inactive: 0.879
B2	inactive: 0.858	inactive: 0.554	inactive: 0.705	inactive: 0.773	inactive: 0.641	inactive: 0.794
B3	inactive: 1.05	inactive: 0.892	inactive: 0.658	inactive: 0.806	inactive: 0.793	inactive: 0.644
B4	inactive: 0.752	inactive: 0.603	inactive: 0.629	inactive: 0.551	inactive: 0.636	inactive: 0.633
B5	inactive: 0.801	inactive: 0.801	inactive: 0.711	inactive: 0.782	inactive: 0.912	inactive: 0.945
B6	inactive: 1.08	inactive: 1.57	active: 3.28	active: 4.5	active: 4.69	inactive: 1.82
B7	inactive: 0.635	inactive: 0.783	inactive: 0.683	inactive: 0.701	inactive: 0.607	inactive: 0.597
B8	inactive: 0.879	inactive: 0.725	inactive: 0.709	inactive: 0.861	inactive: 0.589	inactive: 0.819
B9	inactive: 1.63	inactive: 1.51	active: 4.52	active: 4.59	active: 5.11	inactive: 1.94
B10	inactive: 1.02	inactive: 0.961	inactive: 1.21	inactive: 1.29	inactive: 1.37	inactive: 0.957
B11	inactive: 0.802	inactive: 0.711	inactive: 0.868	inactive: 0.916	inactive: 0.786	inactive: 0.886
B12	inactive: 0.587	inactive: 0.606	inactive: 0.533	inactive: 0.7	inactive: 0.483	inactive: 0.862
B13	inactive: 0.583	inactive: 0.595	inactive: 0.489	inactive: 0.447	inactive: 0.521	inactive: 0.568
B14	inactive: 0.951	inactive: 0.603	inactive: 0.78	inactive: 0.717	inactive: 0.683	inactive: 0.693
B15	inactive: 1.03	inactive: 0.897	inactive: 1.19	inactive: 1.38	inactive: 1.17	inactive: 1.52
B16	inactive: 0.981	inactive: 0.853	inactive: 1.22	inactive: 0.837	inactive: 0.886	inactive: 0.789
B17	inactive: 0.886	inactive: 1.01	inactive: 0.796	inactive: 0.967	inactive: 0.926	inactive: 0.832
B18	inactive: 0.833	inactive: 0.862	inactive: 0.858	inactive: 0.692	inactive: 0.731	inactive: 0.836
B19	inactive: 1.55	inactive: 0.965	inactive: 1.07	inactive: 0.993	inactive: 0.999	inactive: 1.16

Binder	enrichment score [1]	enrichment score [2]	enrichment score [3]	enrichment score [4]	enrichment score [5]	enrichment score [6]
B20	inactive: 0.943	inactive: 0.686	inactive: 1.15	inactive: 0.854	inactive: 0.799	inactive: 0.736
B21	inactive: 0.559	inactive: 0.611	inactive: 0.602	inactive: 0.624	inactive: 0.555	inactive: 0.638
B22	inactive: 0.519	inactive: 0.631	inactive: 0.571	inactive: 0.467	inactive: 0.653	inactive: 0.664
B23	inactive: 0.668	inactive: 0.609	inactive: 0.454	inactive: 0.642	inactive: 0.725	inactive: 0.68
B24	inactive: 0.531	inactive: 0.437	inactive: 0.317	inactive: 0.377	inactive: 0.332	inactive: 0.588
B25	inactive: 1.24	inactive: 1.25	inactive: 1.48	inactive: 1.46	inactive: 1.44	inactive: 1.13
B26	inactive: 0.899	inactive: 1.25	inactive: 1.07	inactive: 0.944	inactive: 1.01	inactive: 1.51
B27	inactive: 1.1	inactive: 1.34	inactive: 0.909	inactive: 0.852	inactive: 1.08	inactive: 1.31
B28	inactive: 0.746	inactive: 0.659	inactive: 0.722	inactive: 0.698	inactive: 0.785	inactive: 1.08
B29	inactive: 0.951	inactive: 0.624	inactive: 0.753	inactive: 0.602	inactive: 0.782	inactive: 0.87
B30	inactive: 0.856	inactive: 0.65	inactive: 0.948	inactive: 0.493	inactive: 0.73	inactive: 0.734
B31	inactive: 0.232	inactive: 0.361	inactive: 0.186	inactive: 0.366	inactive: 0.337	inactive: 0.316
B32	inactive: 1.26	inactive: 0.921	inactive: 1.31	inactive: 1.13	inactive: 1.47	inactive: 1.25
B33	inactive: 0.743	inactive: 0.876	inactive: 0.838	inactive: 0.661	inactive: 0.729	inactive: 0.653
B34	inactive: 0.685	inactive: 0.731	inactive: 0.746	inactive: 0.597	inactive: 0.584	inactive: 0.932
B35	inactive: 1.27	inactive: 1.44	inactive: 1.07	inactive: 1.14	inactive: 1.15	inactive: 2.17
B36	inactive: 0.719	inactive: 0.629	inactive: 0.714	inactive: 0.724	inactive: 0.785	inactive: 0.736
B37	inactive: 0.85	inactive: 0.63	inactive: 0.695	inactive: 0.669	inactive: 0.838	inactive: 0.751
